The antibiotic and cytotoxicity screens of Wong et al. (2023)
The other results are listed elsewhere or left out.

Tested on: S. aureus RN4220
Experiment: growth inhibition call (relative growth <= 0.2)
Conditions: 50 µM

Growth inhibition call, inactive:
O=C(C[C@@H]1C[C@H]2c3cc(NC(=O)Cc4ccncc4)ccc3O[C@H]2[C@@H](CO)O1)NCCN1CCCCC1
C[C@H](CO)N1C[C@H](C)[C@@H](CN(C)CC2CCCCC2)Oc2c(NS(=O)(=O)c3cn(C)cn3)cccc2C1=O
COc1ccc(CNC(=O)C[C@@H]2C[C@H]3c4cc(NC(=O)NC5CCCC5)ccc4O[C@H]3[C@H](CO)O2)cc1
C[C@@H]1CN([C@@H](C)CO)C(=O)c2cc(NC(=O)Nc3cccc4ccccc34)ccc2O[C@@H]1CN(C)S(=O)(=O)c1ccccc1
COc1ccc(CN2C[C@@H](C)[C@H](OC)CN(C)C(=O)c3cc(NC(=O)c4nc5ccccc5s4)ccc3OC[C@H]2C)cc1
COc1cccc(S(=O)(=O)N(C)C[C@H]2Oc3ncc(C#CC(C)C)cc3C(=O)N([C@@H](C)CO)C[C@@H]2C)c1
COc1ccc(S(=O)(=O)Nc2ccc3c(c2)CC(=O)N([C@H](C)CO)C[C@@H](C)[C@@H](CN(C)S(=O)(=O)c2c(C)noc2C)O3)cc1
C[C@@H]1CN([C@H](C)CO)C(=O)CCCn2cc(nn2)CO[C@H]1CN(C)C(=O)Nc1cccc(C(F)(F)F)c1
CO[C@@H](CN(C)C(=O)c1ccc2c(c1)OCO2)[C@H](C)CN([C@@H](C)CO)S(=O)(=O)c1ccc(F)cc1
Cc1noc(C)c1S(=O)(=O)N(C)C[C@@H]1Oc2ccc(NC(=O)C3CC3)cc2CC(=O)N([C@H](C)CO)C[C@H]1C
C[C@H]1CCCCO[C@H](CN(C)C(=O)Nc2ccc3c(c2)OCO3)[C@@H](C)CN([C@@H](C)CO)C(=O)c2cc(NC(=O)CCC(F)(F)F)ccc2O1
COCC#Cc1ccc2c(c1)O[C@H](CN(C)S(=O)(=O)c1ccc(OC)cc1)[C@H](C)CN([C@H](C)CO)S2(=O)=O
C[C@@H]1CN([C@@H](C)CO)C(=O)c2cc(N(C)C)ccc2O[C@@H](C)CCCCO[C@@H]1CN(C)Cc1ccc(C(F)(F)F)cc1
COCC(=O)N(C)C[C@@H]1Oc2cc(C#Cc3ccccc3)ccc2S(=O)(=O)N([C@@H](C)CO)C[C@@H]1C
Cc1ccc(-c2cnc3c(c2)C(=O)N([C@@H](C)CO)C[C@@H](C)[C@@H](CN(C)C(=O)Cc2ccncc2)O3)cc1
C[C@H]1CN([C@@H](C)CO)C(=O)c2cc(NS(C)(=O)=O)ccc2O[C@H]1CN(C)S(=O)(=O)c1cn(C)cn1
C[C@H]1CN([C@@H](C)CO)C(=O)c2cc(NC(=O)Cn3cnnn3)ccc2O[C@@H]1CN(C)Cc1ccc(Cl)c(Cl)c1
CCS(=O)(=O)N1C[C@]2(C1)CN([C@H](CO)c1c2c2ccc(cc2n1C)OC)C(=O)CN1CCOCC1
C[C@@H]1CN([C@@H](C)CO)C(=O)Cc2cc(NC(=O)C3CCCCC3)ccc2O[C@@H]1CN(C)S(C)(=O)=O
C[C@@H]1CN([C@@H](C)CO)C(=O)c2cc(NC(=O)c3ccccc3)ccc2O[C@@H](C)CCCCO[C@H]1CN(C)C(=O)C1CCCCC1
COc1ccc(NC(=O)N(C)C[C@@H]2Oc3ccc(NC(=O)CCCCCC(=O)Nc4ccccc4N)cc3CC(=O)N([C@@H](C)CO)C[C@H]2C)cc1
Cc1ccc(S(=O)(=O)N(C)C[C@@H]2Oc3ccc(NC(=O)NC(C)C)cc3CC(=O)N([C@H](C)CO)C[C@H]2C)cc1
C[C@@H]1CN([C@H](C)CO)C(=O)c2cc(NC(=O)Nc3ccc(C(F)(F)F)cc3)ccc2O[C@@H](C)CCCCO[C@@H]1CN(C)Cc1ccc(Cl)c(Cl)c1
C[C@@H]1CN([C@@H](C)CO)C(=O)c2cccc(NC(=O)c3nc4ccccc4s3)c2O[C@@H]1CN(C)CC1CCCCC1
CO[C@@H]1CN(C)C(=O)c2ccc(NC(=O)Nc3ccccc3F)cc2OC[C@@H](C)N(C(=O)Nc2ccccc2F)C[C@H]1C
CC[C@@]1(O)C[C@H](O[C@H]2C[C@H](N(C)C)[C@H](O[C@H]3C[C@H](O)[C@H](O[C@H]4CCC(=O)[C@H](C)O4)[C@H](C)O3)[C@H](C)O2)c2c(cc3c(c2O)C(=O)c2c(O)cccc2C3=O)[C@H]1C(=O)OC
C[C@@H]1CN([C@@H](C)CO)C(=O)c2cccc(NC(=O)C3CC3)c2O[C@@H]1CN(C)S(=O)(=O)c1cccs1
